# Results taken from PubChem BioAssay (Tox21).
# Several values for one entry are separate records, joined by “and”; a condition that tells them apart may be missing. Equal entries are not always repeated. Inconclusive means that the source gave no clear call. Such entries were picked first, then a sample of the others. Where the call is inconclusive, the potency comes from a doubtful curve fit. Where a structure was tested more than once in an assay, its records may differ in their call. Activity calls are given as the source filed them. Unless noted, calls follow the shape of the dose curve; as a rule, active = well fitted curve in the direction sought with a large enough effect in the repeat runs; inconclusive = weak or mixed curves; inactive = no such curve, though single readings can be large; an effect the other way counts as inactive or inconclusive. Peptide text beside a SMILES is read from it.
# Key:
# [1] = qHTS assay for small molecule agonists of the p53 signaling pathway - cell viability (AID 651633; calls by dose curve; also: nearly all actives have a fitted effect of over 30% in size)
# How it was run: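 Viability counter-read: CellTiter-Glo luminescence (30 min, room temperature) in the same p53RE-bla plates. These plates had been exposed to compounds for 16 h at 37 C.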
# [2] = qHTS assay for identifying genotoxic compounds that show differential cytotoxicity against isogenic chicken DT40 cell lines with known DNA damage response pathways - wild type cell line (AID 743012); details: DT40 wild type chicken cells viability, CellTiter-Glo, 40 h; activity change, negative = cytotoxicity: at 68.4 µM (top of the series); also: nearly all actives have a fitted effect of over 60% in size
# How it was run: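 Viability of DNA repair-proficient chicken DT40 cells was assessed by CellTiter-Glo luminescence following 40 h compound exposure at 37 C/5% CO2.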
# [3] = qHTS assay for small molecule disruptors of the mitochondrial membrane potential (AID 720635); details: HepG2 mitochondrial membrane potential, Mito-MPS dye ratio; as to ratio activity, negative = MMP loss: % is scaled to controls: 0 for no effect and ±100 for the full control effect
# How it was run: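 Mitochondrial membrane potential tracked with Mito-MPS dye, red aggregates (ex 540/em 590 nm) against green monomers (ex 490/em 535 nm). Compound treatment 1 hr at 37C, dye 30 min in HepG2.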
# [4] = biological target: Glucocorticoid receptor (Homo sapiens) (UniProt P04150); assay: qHTS assay to identify small molecule agonists of the glucocorticoid receptor (GR) signaling pathway (AID 720691; active = well fitted activation curve with a large enough effect in the signal ratio in the repeat runs, not every such curve was filed as active; inconclusive = weak or mixed curves, or effect the other way; inactive = no such curve, though single readings can be large or run the other way; the % refers to the signal ratio; as to activation: % is scaled to controls: 0 for no effect and ±100 for the full control effect); details: GR-bla HeLa, beta-lactamase reporter ratio, 18 h; activation: at 62.4 µM (top of the series) unless noted
# Chain of UniProt P04150 (P04150 whole entry, looked up): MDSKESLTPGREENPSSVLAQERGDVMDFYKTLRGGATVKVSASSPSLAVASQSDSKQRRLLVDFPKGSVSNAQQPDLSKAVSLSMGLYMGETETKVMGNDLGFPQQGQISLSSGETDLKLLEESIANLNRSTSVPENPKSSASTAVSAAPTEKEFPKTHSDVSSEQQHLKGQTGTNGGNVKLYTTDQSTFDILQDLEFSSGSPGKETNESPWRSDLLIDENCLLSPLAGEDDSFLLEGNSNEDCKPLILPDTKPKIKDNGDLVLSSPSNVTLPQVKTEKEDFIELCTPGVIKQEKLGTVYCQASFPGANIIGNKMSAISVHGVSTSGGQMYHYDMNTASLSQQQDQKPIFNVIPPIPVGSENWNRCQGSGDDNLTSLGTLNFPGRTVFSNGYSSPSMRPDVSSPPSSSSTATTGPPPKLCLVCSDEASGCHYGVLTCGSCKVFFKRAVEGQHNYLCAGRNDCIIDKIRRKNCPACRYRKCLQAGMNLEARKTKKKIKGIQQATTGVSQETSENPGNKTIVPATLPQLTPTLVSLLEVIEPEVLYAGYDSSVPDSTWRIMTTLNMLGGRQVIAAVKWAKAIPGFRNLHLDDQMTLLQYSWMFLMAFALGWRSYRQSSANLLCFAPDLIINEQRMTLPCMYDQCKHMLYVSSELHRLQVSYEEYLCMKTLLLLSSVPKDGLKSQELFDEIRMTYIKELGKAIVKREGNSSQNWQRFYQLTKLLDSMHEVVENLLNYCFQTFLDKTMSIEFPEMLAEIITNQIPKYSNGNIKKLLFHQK
# How it was run: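 Compounds in DMSO, alongside positive controls, were added to GR-bla HeLa reporter cells and incubated 18 h at 37 C; GRE-driven beta-lactamase was detected by fluorescence after 2 h with FRET substrate at room temperature.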
# [5] = biological target: Glucocorticoid receptor (Homo sapiens) (UniProt P04150); assay: qHTS assay to identify small molecule antagonists of the glucocorticoid receptor (GR) signaling pathway (AID 720692; active = well fitted inhibition curve with a large enough effect in the signal ratio in the repeat runs, not every such curve was filed as active; inconclusive = weak or mixed curves, or effect the other way; inactive = no such curve, though single readings can be large or run the other way; the % refers to the signal ratio; as to activity change, negative = inhibition: % is scaled to controls: 0 for no effect and ±100 for the full control effect); details: GR-bla HeLa, beta-lactamase FRET ratio, dexamethasone-stimulated, 18 h; activity change, negative = inhibition: at 58.5 µM (top of the series) unless noted
# How it was run: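 In a 1536-well cell format, compounds were added 4 h after seeding GR-bla HeLa cells, together with dexamethasone at 5 nM final; reporter activity was measured by FRET-substrate fluorescence following 18 h at 37 C.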
# [6] = qHTS assay to identify small molecule antagonists of the glucocorticoid receptor (GR) signaling pathway - cell viability counter screen (AID 720693); details: GR-bla HeLa viability, CellTiter-Glo luminescence, 18 h, with 5 nM dexamethasone present; viability change, negative = cytotoxic: at 58.5 µM (top of the series); also: nearly all actives have a fitted effect of over 55% in size
# [7] = qHTS assay for small molecule disruptors of the mitochondrial membrane potential - cell viability (AID 720634; calls by dose curve; also: nearly all actives have a fitted effect of over 20% in size;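 as to activity change, negative = cytotoxicity: human HepG2 liver cancer cells; % is scaled to controls: 0 for no effect and ±100 for the full control effect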)
# How it was run: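 Viability of HepG2 cells is scored from ATP content by luminescence; cells are exposed to compound for 1 hr at 37 C and 5% CO2, then dosed with m-MPI dye before the CellTiter-Glo reagent.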
# [8] = qHTS assay to test for compound auto fluorescence at 460 nm (blue) in HepG2 cells (AID 720687); details: autofluorescence 405/460 nm, 1 h
# How it was run: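 Blue-channel autofluorescence (Ex/Em 405/460 nm, triamterene-equivalent) was measured after 1 hr compound exposure at 37 C, 5% CO2. Cells were HepG2, plated overnight at 37 C in MEM plus 10% FBS.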
# [9] = ratio activity, negative = MMP loss: at 83.2 µM (top of the series) unless noted
# Potency is read from the fitted curve at half-maximal effect; tags tell the direction and shape of the fitted curve or compound fluorescence and quenching.
compound,measurement,setting,value
O=C(COc1ccc(Cl)cc1)N1CCN(Cc2ccc3c(c2)OCO3)CC1,Potency,[1],"inconclusive: 68.6 µM [cytotoxic, single point]"
same,Potency,[2],"active: 29.8 µM and inconclusive: 48.6 µM [cytotoxic, partial curve]"
CC(C)(c1cc(Br)c(OCCO)c(Br)c1)c1cc(Br)c(OCCO)c(Br)c1,Potency,[1],active: 47.5 µM
same,Potency,[3]; [9],active: 5.97 µM
same,Potency,[4],"inconclusive: 38 µM [falling, partial curve]"
same,Potency,[5],"inconclusive: 47.9 µM [cytotoxic, single point]"
same,Potency,[6],active: 38 µM
CCCCCCCOC(=O)c1ccc(O)cc1,Potency,[7],"inconclusive: 54.5 µM [cytotoxic, partial curve] and active: 27.3 µM"
same,Potency,[3]; [9],active: 8.64 µM and active: 8.63 µM
same,Potency,[5],"inconclusive: 55 µM [cytotoxic] and inconclusive: 49 µM [cytotoxic, partial curve]"
same,Potency,[6],"inconclusive: 55 µM [cytotoxic, single point] and active: 49 µM"
same,Potency,[2],"inconclusive: 34.4 µM [cytotoxic, full curve]"
O=C(O)c1ccc([N+](=O)[O-])cc1,Potency,[3]; [9],inactive
CC(=O)O[C@]1(C(C)=O)CC[C@H]2[C@@H]3C=C(Cl)C4=CC(=O)[C@@H]5C[C@@H]5[C@]4(C)[C@H]3CC[C@@]21C,Potency,[7],"inconclusive: 18.8 µM [cytotoxic, partial curve, poor fit] and inconclusive: 27.3 µM [cytotoxic, partial curve] and inconclusive: 48.6 µM [cytotoxic, partial curve]"
same,Potency,[6],"inconclusive: 13.8 µM [cytotoxic, full curve]"
Nc1ccc2c(c1)C(=O)c1ccccc1C2=O,Potency,[7],"inconclusive: 68.6 µM [cytotoxic, partial curve, poor fit]"
same,"activity change, negative = inhibition",[5],inconclusive: 7% and inconclusive: 4.53%
COc1ccc2nc(S(=O)Cc3ncc(C)c(OC)c3C)[nH]c2c1 (stereo not given),"ratio activity, negative = MMP loss",[3]; [9],inconclusive: -23%
CC(C)OC(=O)C(C)(C)Oc1ccc(C(=O)c2ccc(Cl)cc2)cc1,Potency,[7],"inconclusive: 26.6 µM [cytotoxic, partial curve, poor fit] and inconclusive: 68.6 µM [cytotoxic, single point]"
same,Potency,[3]; [9],"inconclusive: 3.35 µM [inhibitor, single point]"
same,activation,[4],inconclusive: 1.16% [phenotype inactive]
same,Potency,[5],inactive
same,Potency,[2],active: 29.8 µM and active: 12.2 µM
C#CC1(O)CC[C@H]2[C@@H]3CCC4=CCCC[C@@H]4[C@H]3CC[C@@]21C (stereo not given in full),Potency,[7],inactive and inconclusive: 68.6 µM [cytotoxic]
same,Potency,[3]; [9],active: 9.02 µM and active: 17.2 µM
same,Potency,[4],"inconclusive: 49 µM [cytotoxic, partial curve]"
same,Potency,[5],"inconclusive: 6.44 µM [partial curve] and inconclusive: 61.6 µM [cytotoxic, single point]"
same,Potency,[6],inconclusive: 54.9 µM [cytotoxic]
CCCCCN=C(N)N/N=C/c1c[nH]c2ccc(OC)cc12,Potency,[3]; [9],inactive
O=P(O)(O)O,"ratio activity, negative = MMP loss",[3]; at 83.2 µM (top of the series),inactive: 27.7% and inactive: 5.37%
same,"ratio activity, negative = MMP loss",[3]; [9],inconclusive: 19.8% [at 95.3 µM]
same,Potency,[8],"inconclusive: 56.2 µM [fluorescent, partial curve, poor fit]"
CCCCCC(=O)O[C@]1(C(C)=O)CC[C@H]2[C@@H]3CCC4=CC(=O)CC[C@]4(C)[C@H]3CC[C@@]21C,Potency,[7],"inconclusive: 19.2 µM [cytotoxic, partial curve]"
same,Potency,[3]; [9],active: 11.9 µM and active: 15.2 µM
same,Potency,[5],active: 268 nM and active: 194 nM
same,Potency,[6],"inconclusive: 15.1 µM [cytotoxic, partial curve, poor fit] and inconclusive: 21.7 µM [cytotoxic, single point]"
CCCCCCO,Potency,[3]; [9],inactive
COC(=O)[C@H](Cc1ccccc1)NC(=O)[C@@H](N)CC(=O)O (H-Asp-Phe-OMe),Potency,[3]; [9],"inactive and inconclusive: 2.37 µM [activator, full curve, poor fit]"
Cc1ccc(S(=O)(=O)NC(=O)NN2CCCCCC2)cc1,"ratio activity, negative = MMP loss",[3]; at 83.2 µM (top of the series),inactive: 17.8%
same,"ratio activity, negative = MMP loss",[3]; [9],inconclusive: -16.3% and inconclusive: 7.67%
same,Potency,[5],inactive
Cc1oncc1C(=O)Nc1ccc(C(F)(F)F)cc1,Potency,[7],"inconclusive: 11.4 µM [cytotoxic, partial curve, poor fit] and active: 61.1 µM"
same,Potency,[3]; [9],active: 10.1 µM and active: 7.7 µM
same,Potency,[5],"inconclusive: 4.9 µM [activator, partial curve, poor fit]"
C=C(c1ccc(C(=O)O)cc1)c1cc2c(cc1C)C(C)(C)CCC2(C)C,Potency,[7],"inconclusive: 68.6 µM [cytotoxic, single point]"
same,Potency,[3]; [9],active: 9.44 µM and active: 21.7 µM
same,Potency,[4],"inconclusive: 15.1 µM [cytotoxic] and inconclusive: 17.4 µM [cytotoxic, partial curve]"
same,Potency,[5],active: 9.77 µM
same,Potency,[6],"active: 13.4 µM and inconclusive: 13.8 µM [cytotoxic, partial curve]"
C=C(C)C(=O)OCCCCCCCCCCCC,Potency,[3]; [9],"inconclusive: 68.9 µM [rising, partial curve, poor fit]"
same,"ratio activity, negative = MMP loss",[3]; [9],inconclusive: 31.5%
same,"activity change, negative = inhibition",[5],inconclusive: -1.38%
same,Potency,[2],"inconclusive: 77.4 µM [rising, single point]"
O=C1NC(=O)c2cc([N+](=O)[O-])ccc21,Potency,[7],inactive
same,Potency,[3]; [9],"inconclusive: 61.6 µM [inhibitor, single point]"
same,"activity change, negative = inhibition",[5],inconclusive: 15.6% [at 78.9 µM]
CCCCOCCOCCOCc1cc2c(cc1CCC)OCO2,Potency,[7],active: 17.4 µM
same,Potency,[2],"inconclusive: 29.8 µM [cytotoxic, single point] and active: 24.6 µM"
C/C=C/C=N/NC(=O)c1ccncc1,Potency,[3]; [9],inactive
CCCCCCCCCC,Potency,[7],inactive
same,"ratio activity, negative = MMP loss",[3]; [9],inconclusive: 19.6%
same,Potency,[2],"inconclusive: 68.6 µM [cytotoxic, single point]"
CCC(C)OC(=O)c1ccc(O)cc1 (stereo not given),Potency,[7],"inconclusive: 30.8 µM [cytotoxic, partial curve] and inconclusive: 27.3 µM [cytotoxic, partial curve]"
same,Potency,[3]; [9],active: 24.5 µM and active: 17.2 µM
same,Potency,[2],"inconclusive: 69 µM [cytotoxic, single point] and inconclusive: 68.6 µM [cytotoxic]"
COc1ccc(OC)cc1,Potency,[3]; [9],inactive
c1ccc2n[nH]nc2c1,Potency,[3]; [9],inactive
COc1ccc2[nH]cc(CCNC(C)=O)c2c1,Potency,[7],inactive
same,Potency,[3]; [9],inactive
same,Potency,[5],inactive
same,Potency,[2],"inconclusive: 15.6 µM [rising, single point]"
O=C(N[C@H](CO)[C@H](O)c1ccc([N+](=O)[O-])cc1)C(Cl)Cl,Potency,[3]; [9],"inconclusive: 2.43 µM [activator, partial curve, poor fit]"
same,"ratio activity, negative = MMP loss",[3]; [9],inconclusive: 3.36%
same,Potency,[6],"inconclusive: 24.5 µM [rising, partial curve, poor fit]"
CC1=C(CC(=O)O)c2cc(F)ccc2/C1=C\c1ccc(S(C)=O)cc1 (stereo not given),Potency,[7],"inconclusive: 33.5 µM [cytotoxic, partial curve, poor fit]"
same,Potency,[3]; [9],"inconclusive: 10.6 µM [activator, partial curve, poor fit] and inconclusive: 9.69 µM [activator]"
same,"activity change, negative = inhibition",[5],inconclusive: -33.2%
CC/C(=C(\c1ccccc1)c1ccc(OCCN(C)C)cc1)c1ccccc1,Potency,[7],active: 61.1 µM [middle of 5 runs]
same,Potency,[4],inconclusive: 26.8 µM [cytotoxic] [middle of 5 runs]
same,Potency,[6],"inconclusive: 26.8 µM [cytotoxic, single point] and inconclusive: 54.9 µM [cytotoxic, single point]"
CCN(CC)CCOC(=O)c1ccc(N)cc1,Potency,[3]; [9],"inconclusive: 10.1 µM [activator] and inconclusive: 36.2 µM [activator, partial curve, poor fit]"
OC[C@@H](O)[C@H](O)[C@H](O)[C@@H](O)CO,"ratio activity, negative = MMP loss",[3]; [9],inconclusive: -17.1%
CCCCC(CC)COS(=O)(=O)O (stereo not given),"ratio activity, negative = MMP loss",[3]; at 83.2 µM (top of the series),inactive: -2.95%
same,"ratio activity, negative = MMP loss",[3]; [9],inconclusive: -7.55%
C[C@]12CC[C@@H]3c4ccc(O)cc4CC[C@H]3[C@@H]1CCC2=O,Potency,[3]; [9],active: 13.3 µM and active: 6.87 µM
CC(C)c1ccc(S(=O)(=O)O)cc1,"ratio activity, negative = MMP loss",[3]; [9],inconclusive: 6.05%
CC/C(=C(\c1ccc(O)cc1)c1ccc(OCCN(C)C)cc1)c1ccccc1,Potency,[7],active: 68.7 µM
same,Potency,[3]; [9],active: 24.4 µM
same,Potency,[4],inconclusive: 21.9 µM [cytotoxic]
same,Potency,[5],"inconclusive: 43.8 µM [cytotoxic, partial curve]"
same,Potency,[6],active: 24.6 µM
COC(=O)NCCC[Si](OC)(OC)OC,"ratio activity, negative = MMP loss",[3]; [9],inconclusive: -10.4%
CC(=O)Nc1ccc(C(=O)O)cc1,"ratio activity, negative = MMP loss",[3]; at 83.2 µM (top of the series),inactive: -20.5%
same,"ratio activity, negative = MMP loss",[3]; [9],inconclusive: -6.09%
CCCCCCCCCCCCCCNCCO,Potency,[3]; [9],inconclusive: 15 µM [activator]
CC(O)CO (stereo not given),"ratio activity, negative = MMP loss",[3]; at 8.08 µM (top of the series),inactive: 23.4%
same,"ratio activity, negative = MMP loss",[3]; at 83.2 µM (top of the series),inactive: 5.28%
same,Potency,[3]; [9],"inconclusive: 2.73 µM [rising, single point]"
same,"ratio activity, negative = MMP loss",[3]; [9],inconclusive: 0.158%
same,Potency,[5],inactive
